Data taken from PubChem BioAssay (NCI).
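These data come from cells grown in 96-well plates and exposed to compound for 48 hours at five concentrations. GI50: concentration for 50% inhibition of growth. TGI: total growth inhibition.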

Each molecule was assayed on NCI-H322M lung (assay: growth of human tumour cells (NCI), 48 h).
With `CC(=O)Oc1ccccc1C(=O)Nc1cc(C(C)C)ccc1C` the GI50 was 4.89 µM and the TGI was 65.7 µM.
In the case of `CNC(=O)c1cc(N2CCc3cc(NC(=O)Nc4ccc(N5CCOCC5)c(C(F)(F)F)c4)ccc32)ccn1`, the GI50 is reported as 2.91 µM and the TGI is reported as > 33.3 µM.
For `c1n[nH]cc1-c1nc2ccc3[nH]ncc3c2c2c1CCCC2`, the GI50 was 1.41 µM and the TGI was 7.12 µM.
With `CC(=C(c1ccc(OCCN(C)C)cc1)c1ccc(OCCN(C)C)cc1)c1ccc(Cl)cc1` the GI50 was 1.06 µM and the TGI was 4.23 µM.
